{"source": "paper PMC4336329", "about": "(PLoS ONE, 2015)", "note": "Out of some 310,000 compounds screened, about 2,200 (0.71%) showed an effect of 50% or more. The effect is printed as a negative number. The list shows a part of the results.", "data": [{"molecular_target": "human ether-à-go-go-related gene (hERG) potassium channel (human, UniProt Q12809)", "sequence (Q12809 whole entry, looked up)": "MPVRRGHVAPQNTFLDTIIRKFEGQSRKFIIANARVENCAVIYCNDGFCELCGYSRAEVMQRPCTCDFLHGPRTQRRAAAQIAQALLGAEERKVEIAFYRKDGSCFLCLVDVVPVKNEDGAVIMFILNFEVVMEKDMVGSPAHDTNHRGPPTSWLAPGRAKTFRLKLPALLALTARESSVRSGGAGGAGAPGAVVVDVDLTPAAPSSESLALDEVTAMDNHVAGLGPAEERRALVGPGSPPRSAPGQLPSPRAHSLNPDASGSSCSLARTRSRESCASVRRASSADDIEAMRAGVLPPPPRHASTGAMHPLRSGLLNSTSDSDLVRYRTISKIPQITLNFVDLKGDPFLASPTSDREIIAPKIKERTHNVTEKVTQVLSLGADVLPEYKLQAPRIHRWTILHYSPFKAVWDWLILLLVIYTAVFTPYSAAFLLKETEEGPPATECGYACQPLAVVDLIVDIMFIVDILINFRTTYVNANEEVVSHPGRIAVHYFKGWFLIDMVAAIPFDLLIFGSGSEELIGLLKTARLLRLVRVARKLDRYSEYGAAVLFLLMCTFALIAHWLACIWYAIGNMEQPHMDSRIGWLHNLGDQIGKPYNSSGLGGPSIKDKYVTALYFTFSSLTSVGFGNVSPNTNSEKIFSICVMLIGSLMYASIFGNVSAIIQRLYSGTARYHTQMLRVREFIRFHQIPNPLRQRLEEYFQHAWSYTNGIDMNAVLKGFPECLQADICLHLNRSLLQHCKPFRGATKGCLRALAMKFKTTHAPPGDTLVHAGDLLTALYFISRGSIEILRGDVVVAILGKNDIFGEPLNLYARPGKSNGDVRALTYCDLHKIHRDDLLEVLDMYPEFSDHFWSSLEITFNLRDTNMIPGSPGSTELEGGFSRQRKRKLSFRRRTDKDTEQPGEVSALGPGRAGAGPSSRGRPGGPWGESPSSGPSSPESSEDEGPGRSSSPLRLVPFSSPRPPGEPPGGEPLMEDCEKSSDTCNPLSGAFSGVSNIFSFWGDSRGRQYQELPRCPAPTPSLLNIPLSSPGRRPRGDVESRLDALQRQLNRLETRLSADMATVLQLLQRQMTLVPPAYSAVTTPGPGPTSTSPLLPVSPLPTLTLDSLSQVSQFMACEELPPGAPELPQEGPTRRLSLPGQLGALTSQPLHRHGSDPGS", "experiment": "primary screen, population patch clamp on CHO cells stably expressing hERG", "units": {"hERG current change (%, negative = inhibition) at 1uM": "%"}, "values": [{"compound": "CC(=O)C1=C(O)CC(c2ccccc2)CC1=NCCc1c(C)[nH]c2ccc(C)cc12", "note": "(stereo not shown)", "hERG current change (%, negative = inhibition) at 1uM": -2.68}, {"compound": "COc1ccc(OCC(O)CNC(=O)Nc2ccc(C(C)(C)C)cc2)cc1", "note": "(stereo not shown)", "hERG current change (%, negative = inhibition) at 1uM": 0.173}, {"compound": "COc1cc(/C=C/C(=O)OCC(=O)N2CCC(C)CC2)ccc1O", "hERG current change (%, negative = inhibition) at 1uM": 5.87}, {"compound": "COC(C(=O)Nc1ccnn1C1CCN(Cc2ccc(C)s2)CC1)c1ccccc1", "note": "(stereo not shown)", "hERG current change (%, negative = inhibition) at 1uM": 6.46}, {"compound": "CCOC(=O)C1CCN(C(=O)COC(=O)c2ccc(=O)n(Cc3ccccc3)n2)CC1", "hERG current change (%, negative = inhibition) at 1uM": 0.035}, {"compound": "Cc1cc(C)c(C)c(S(=O)(=O)N2CCN(CC(=O)c3c(N)n(Cc4ccccc4)c(=O)n(C)c3=O)CC2)c1C", "hERG current change (%, negative = inhibition) at 1uM": 0.288}, {"compound": "CCCCOc1ccc(-c2ncc([N+](=O)[O-])cn2)cc1", "hERG current change (%, negative = inhibition) at 1uM": 6.4}, {"compound": "O=C(O)CCC(=O)N1CC=C(c2ccccc2)CC1", "hERG current change (%, negative = inhibition) at 1uM": 14.5}, {"compound": "CCCCCn1c(=NC(=O)c2ccco2)c(C(=O)OCC)cc2c(=O)n3ccccc3nc21", "hERG current change (%, negative = inhibition) at 1uM": -30.9}, {"compound": "CCc1ccn2cc(-c3cc(-c4ccccc4)no3)nc2c1", "hERG current change (%, negative = inhibition) at 1uM": 11.8}, {"compound": "O=C(Nc1ccccc1C(=O)N/N=C/c1ccco1)c1ccc(Cl)cc1", "hERG current change (%, negative = inhibition) at 1uM": 11.3}, {"compound": "CCOC(=O)c1c(Cc2ccccc2)c[nH]c1C", "hERG current change (%, negative = inhibition) at 1uM": 9.38}, {"compound": "O=C(O)C(=O)O.c1ccc2c(c1)CCN(C1CCCCC1)C2", "hERG current change (%, negative = inhibition) at 1uM": 6.77}, {"compound": "Cc1ccc(OCC(=O)Nc2ccc(CN3CCOCC3)cc2)cc1C", "hERG current change (%, negative = inhibition) at 1uM": -14.9}, {"compound": "CCC(C)NS(=O)(=O)c1ccc(S(=O)(=O)N2CCCC3(CCCCC3)C2)cc1", "note": "(stereo not shown)", "hERG current change (%, negative = inhibition) at 1uM": 7.81}, {"compound": "COc1ccccc1-c1cc(-c2ccccc2)nc(=O)[nH]1", "hERG current change (%, negative = inhibition) at 1uM": 9.21}, {"compound": "COc1ccc(S(=O)(=O)n2nc(OC(=O)c3ccco3)cc2N)cc1", "hERG current change (%, negative = inhibition) at 1uM": 19.6}, {"compound": "COc1ccccc1/C=C/CN1CCC(Oc2cc(C(=O)NC3CC3)ccc2OC)CC1", "hERG current change (%, negative = inhibition) at 1uM": -78.3}, {"compound": "O=C(O)c1cccc(NC(=O)c2ccc3c(c2)C(=O)N(Cc2ccco2)C3=O)c1", "hERG current change (%, negative = inhibition) at 1uM": 16.5}, {"compound": "CCCCOc1ccccc1NC(=O)c1ccco1", "hERG current change (%, negative = inhibition) at 1uM": 1.86}, {"compound": "N#Cc1ccc(-c2ccc(Cl)cc2)nc1Oc1ccc(F)cc1", "hERG current change (%, negative = inhibition) at 1uM": 10.2}, {"compound": "COc1ccc(-n2c(SCC(=O)Nc3ccc(NC(C)=O)cc3)nc3ccccc3c2=O)cc1", "hERG current change (%, negative = inhibition) at 1uM": 16.8}, {"compound": "CC(=O)c1cccc(CN2CCCCC2C(=O)Nc2ccc(Oc3ccccc3)nc2)c1", "note": "(stereo not shown)", "hERG current change (%, negative = inhibition) at 1uM": 0.714}, {"compound": "O=S(=O)(c1ccc(F)cc1)N1CCCN(c2nccc(C(F)(F)F)n2)CC1", "hERG current change (%, negative = inhibition) at 1uM": 7.57}, {"compound": "COc1ccc(CNn2cnnc2)c(O)c1", "hERG current change (%, negative = inhibition) at 1uM": 15.8}, {"compound": "CCCCN(CC)S(=O)(=O)c1ccc(C(=O)N=c2sc3cc(NC(C)=O)ccc3n2C)cc1", "hERG current change (%, negative = inhibition) at 1uM": 14.5}, {"compound": "O=C(Nc1nnc(C2=COCCO2)o1)c1ccc(S(=O)(=O)N2CCCCC2)cc1", "hERG current change (%, negative = inhibition) at 1uM": 16.4}, {"compound": "COc1ccc(NC(=S)NC(NC(=O)C(C)C)C(Cl)(Cl)Cl)c([N+](=O)[O-])c1", "note": "(stereo not shown)", "hERG current change (%, negative = inhibition) at 1uM": 8.63}, {"compound": "Cc1cccc(CSc2ccc3nnc(-c4cccs4)n3n2)c1", "hERG current change (%, negative = inhibition) at 1uM": 5.73}, {"compound": "O=C(Oc1ccccc1Cl)c1ccc(-n2cncn2)nc1", "hERG current change (%, negative = inhibition) at 1uM": 16.3}, {"compound": "CCN(CC(=O)Nc1ccc(C)c(S(=O)(=O)N(C)C)c1)Cc1ccccc1.O=C(O)C(=O)O", "hERG current change (%, negative = inhibition) at 1uM": 2.49}, {"compound": "Cc1cc(Cl)c2oc(C(=O)N3CCN(C(=O)c4ccco4)CC3)c(C)c2c1", "hERG current change (%, negative = inhibition) at 1uM": 7.14}, {"compound": "COc1ccc(-c2noc(CN(C)Cc3ccccc3)n2)c(OC)c1OC", "hERG current change (%, negative = inhibition) at 1uM": 12.9}, {"compound": "CC(C)n1c(SCC(=O)Nc2nc3c(s2)CCCC3)nc2c1c(=O)n(C)c(=O)n2C", "hERG current change (%, negative = inhibition) at 1uM": 5.51}, {"compound": "NC(=O)c1ccc[n+](CC(=O)c2ccc(Br)cc2)c1.[Br-]", "hERG current change (%, negative = inhibition) at 1uM": 13.7}, {"compound": "Cc1nnc(N/N=C/c2cccs2)[nH]c1=O", "hERG current change (%, negative = inhibition) at 1uM": 2.15}, {"compound": "O=C(CN1CCCc2ccccc21)N/N=C/c1ccc(F)cc1F", "hERG current change (%, negative = inhibition) at 1uM": 9.8}, {"compound": "CSc1nc2sc3c(c2c(=S)[nH]1)CC(C)(C)OC3", "hERG current change (%, negative = inhibition) at 1uM": 15.1}, {"compound": "CCC(C)(C)NC(=O)/C=C/c1ccccc1[N+](=O)[O-]", "hERG current change (%, negative = inhibition) at 1uM": 5.36}, {"compound": "Cc1nn2c(-c3cccnc3)ccnc2c1-c1ccccc1", "hERG current change (%, negative = inhibition) at 1uM": 15.6}, {"compound": "CC(OC(=O)c1ccc(S(=O)(=O)NCc2ccco2)cc1)C(=O)Nc1ncc(Cl)cc1Cl", "note": "(stereo not shown)", "hERG current change (%, negative = inhibition) at 1uM": 17}, {"compound": "CCCNC(=O)OC[C@H]1O[C@H](CCO/N=C/C[C@@H]2C=C[C@H](OC(C)=O)[C@@H](COC(C)=O)O2)C=C[C@@H]1Oc1ccc(OC)cc1", "hERG current change (%, negative = inhibition) at 1uM": -12.8}, {"compound": "O=C(CSCc1ccc([N+](=O)[O-])cc1)NC1CC1", "hERG current change (%, negative = inhibition) at 1uM": -7.58}]}]}
